# ± gives the standard deviation of the averaged measurements. Whole data set: some 33,000 sequences, median “E-score (dimensionless, -0.5 to 0.5)” near -0.046, cut for the highest 2% near 0.36. This is one part of the list.
# Test system: T1, SpTbr T-box DNA-binding domain (GST fusion)
# T1 sequence: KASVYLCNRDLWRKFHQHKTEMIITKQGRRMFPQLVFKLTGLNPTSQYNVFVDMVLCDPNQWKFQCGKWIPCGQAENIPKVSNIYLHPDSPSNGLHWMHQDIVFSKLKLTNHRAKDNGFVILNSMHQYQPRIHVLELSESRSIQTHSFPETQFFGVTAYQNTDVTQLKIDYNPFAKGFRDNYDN
# Experiment: PBM E-score of 8-mer (E-score (dimensionless, -0.5 to 0.5)); Tbr is Tbrain of the sea star Patiria miniata (Pm) or the sea urchin Strongylocentrotus purpuratus (Sp); higher = stronger binding preference; most listed sequences are background and not binding sites
# Settings: the construct has about 5 more residues each side
# Experimental: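 Universal protein-binding microarray (Agilent AMADID 016060, 60-bp probes with a 35-bp variable region) incubated with 200 nM GST-fused Strongylocentrotus purpuratus Tbr T-box DNA-binding domain (residues 362-554) in PBS pH 7.5. Scored for every ungapped 8-mer (given with its reverse complement) as E-score (range -0.5 to 0.5; >0.45 counts as bound) and Z-score of median probe intensity. Two replicate arrays (datasets 1 and 2).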
# 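Further: protein at 200 nM in PBS on universal double-stranded arrays.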
row,Sequence,PBM E-score of 8-mer
1,ACAGCGAT,-0.148 ± 0.021
2,ACCAATTC,0.00139 ± 0.042
3,CGGCTCCA,-0.0313 ± 0.029
4,ATTCCGCC,-0.151 ± 0.015
5,CAAACAGA,-0.0976 ± 0.11
6,CCAGTGCG,0.176 ± 0.0042
7,CATGTTGC,0.0531 ± 0.0027
8,ATCTAGGA,-0.206 ± 0.0076
9,ATGATAAG,-0.12 ± 0.057
10,AATAAGGT,0.0316 ± 0.053
11,ACAAGCGT,0.13 ± 0.036
12,CAGGTCGG,0.0973 ± 0.0072
13,ACCACTTA,-0.0351 ± 0.051
14,GCAGGAGA,-0.0948 ± 0.0069
15,CTATCCGC,0.00122 ± 0.06
16,GACCCAGC,-0.0512 ± 0.053
17,CTTATTGA,-0.232 ± 0.048
18,ATACTACG,-0.142 ± 0.022
19,CAGCCATC,-0.0868 ± 0.0053
20,AGCGGGCG,0.0665 ± 0.011
21,ACCCGTAT,0.0916 ± 0.0027
22,GCGTCTAC,0.0423 ± 0.02

row,Sequence,PBM E-score of 8-mer
1,AGATTCTA,-0.236 ± 0.032
2,AATTAAAC,-0.0463 ± 0.12
3,CAAAGTAC,-0.111 ± 0.1
4,CACGAATA,0.124 ± 0.062
5,AGGCTTAG,-0.23 ± 0.044
6,GCAAGGAA,0.0204 ± 0.0047
7,AGATGGGC,-0.154 ± 0.012
8,TAGTAATA,-0.113 ± 0.019
9,ACTACCAT,-0.136 ± 0.036
10,ACTAGGGA,-0.0228 ± 0.02
11,AAGCTTAT,-0.225 ± 0.049
12,AACAACAC,0.373 ± 0.013
13,AAGAGACT,-0.138 ± 0.0053
14,CCATTCGG,-0.2291 ± 0.002
15,CTCGGTAA,-0.0319 ± 0.0046
16,AGATATCT,-0.153 ± 0.082
17,CGAAACCA,0.108 ± 0.038
18,ACCGATAT,-0.155 ± 0.0099
19,CATCAATA,-0.1151 ± 2.1e-05
20,AACATTAC,-0.134 ± 0.049
21,CGAACCCG,0.0328 ± 0.0017
22,CAATAGGA,-0.3222 ± 0.0015

row,Sequence,PBM E-score of 8-mer
1,ACAAACGC,0.0188 ± 0.054
2,ACGCCGAA,-0.0237 ± 0.04
3,ACACCAAT,0.262 ± 0.0086
4,ACCAGGAT,-0.096 ± 0.029
5,CCTCCGGC,-0.116 ± 0.03
6,CTATATGA,-0.173 ± 0.038
7,TCCTGACA,0.13 ± 0.016
8,CCTCTACG,-0.0662 ± 0.046
9,GCAGATCA,-0.0781 ± 0.05
10,ATTATAGG,-0.255 ± 0.027
11,AAACCAAC,-0.162 ± 0.028
12,CAAGTGCA,0.175 ± 0.0078
13,AATTACAC,0.227 ± 0.017
14,ATCGTATA,-0.0973 ± 0.036
15,GCAATTAC,-0.0514 ± 0.012
16,TAATCAAA,-0.0519 ± 0.084
17,AAACCTAT,-0.193 ± 0.084
18,CAATAAGG,-0.0796 ± 0.057
19,ACTGACCA,-0.198 ± 0.025
20,ATGGCGGC,0.0393 ± 0.086
21,AGGCAACA,0.105 ± 0.032
22,AGGCGGAA,-0.127 ± 0.058

row,Sequence,PBM E-score of 8-mer
1,GGGCGGTA,0.0156 ± 0.066
2,TCGCACAA,0.313 ± 0.0099
3,ATACATTG,-0.111 ± 0.0028
4,ATGTAGGC,-0.203 ± 0.022
5,CGAATTAG,-0.156 ± 0.002
6,GCGGACTA,-0.122 ± 0.063
7,CACCTTCG,0.396 ± 0.017
8,GGGTATAC,0.0195 ± 0.045
9,TCGCTGAA,-0.128 ± 0.034
10,ATAAGTGG,0.0506 ± 0.045
11,AACGTGCG,0.32 ± 0.0051
12,CTACTTCA,0.071 ± 0.0037
13,CGCACCAC,0.26 ± 0.029
14,CCAACCCA,-0.13 ± 0.019
15,ATTCAGGC,-0.0804 ± 0.043
16,CCACGGTC,-0.0434 ± 0.1
17,ACGACCAT,-0.0132 ± 0.016
18,AAAGGCGA,0.137 ± 0.077
19,GGCGCTAC,0.335 ± 0.013
20,ACACGGTG,0.144 ± 0.044

# Source: the supplement of paper PMC4166925
